Results from a collection of fitness landscapes (doi:10.1016/j.celrep.2020.107928).
In all, about 81,000 sequences were measured (“one-hybrid fitness for binding NBS DNA”: median about -0.1, highest 2% from about 0.36 on). Some of the results follow.

B1: Caulobacter ParB omega fusion; a variant is named by its letters at X, in order, B8GW30 (parent)
chain: MESVVVGEPGMSEGRRGLGRGLSALLGEVDAAPAQAPGEQLGGSREAPIEILQRNPDQPRRTFREEDLEDLSNSIREKGVLQPILVRPSPDTAGEYQIVAGERAWRAAQRAGLKTVPIMVRELDDLAVLEIGIIENVQRADLNVLEEALSYKVLMEKFERTQENIAQTIGKSXSHVANXMRLLXLPDEVQSYLVSGELTAXHARAIAAAADPVALAKQIIEGGLSVRETEALARKAPNLSAGKSKGGRPPRVKDTDTQALESDLSSVLGLDVSIDHRGSTGTLTITYATLEQLDDLCNRLTRGI

Variants of: B1
Assay: one-hybrid fitness for binding NBS DNA (the Noc-binding site; scaled: cognate 1, non-cognate 0); higher = stronger binding
Settings: with NBS DNA site
Outline: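 The reporter was HIS3, with the binding site 19 bp from the promoter, in E. coli USO used for bacterial one-hybrid selection of Caulobacter ParB libraries with four specificity codons randomised. Growth was on M9 lacking histidine, with 0.1 mM IPTG and 5 mM 3-AT, for 48 hours at 37°C. Illumina sequencing covered plasmids before and after selection; three replicate libraries were pooled and variants with under 10 reads dropped. A fitness score is the log change in variant-to-wild-type read ratio, rescaled to the cognate and non-cognate references.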

Row | Variant | one-hybrid fitness for binding NBS DNA
1 | WNPS | ≤ 0.2
2 | TYND | ≤ 0.2
3 | IAEL | ≤ 0.2
4 | LNKS | ≤ 0.2
5 | NLYI | ≤ 0.2
6 | CSIS | ≤ 0.2
7 | PADA | ≤ 0.2
8 | KWFG | ≤ 0.2
9 | SCPL | ≤ 0.2
10 | RINL | ≤ 0.2
11 | CQYS | ≤ 0.2
12 | LYYF | ≤ 0.2
13 | MNIT | ≤ 0.2
14 | MLYL | ≤ 0.2
15 | KKLC | ≤ 0.2
16 | RQHV | ≤ 0.2
17 | QSQY | ≤ 0.2
18 | KSDD | ≤ 0.2
19 | AHLV | ≤ 0.2
20 | LSSA | ≤ 0.2
21 | NCFT | ≤ 0.2
22 | IHES | ≤ 0.2
23 | TDCR | ≤ 0.2
24 | PPQP | ≤ 0.2
25 | QISA | ≤ 0.2
26 | RKHS | 0.624

Row | Variant | one-hybrid fitness for binding NBS DNA
27 | IVEN | ≤ 0.2
28 | IDPI | ≤ 0.2
29 | NFPC | ≤ 0.2
30 | HNMF | ≤ 0.2
31 | AVCR | ≤ 0.2
32 | THVL | ≤ 0.2
33 | TNEH | ≤ 0.2
34 | RNLS | ≤ 0.2
35 | DIML | ≤ 0.2
36 | QAGQ | ≤ 0.2
37 | KFIG | ≤ 0.2
38 | KRLV | ≤ 0.2
39 | CTIR | ≤ 0.2
40 | LDKI | ≤ 0.2
41 | SYQE | ≤ 0.2
42 | VPLP | ≤ 0.2
43 | TEPA | ≤ 0.2
44 | AFTM | ≤ 0.2
45 | SNKD | ≤ 0.2
46 | KTRG | ≤ 0.2
47 | IETT | ≤ 0.2
48 | FVLC | ≤ 0.2
49 | SHAR | ≤ 0.2
50 | DVHS | ≤ 0.2
51 | PNRS | ≤ 0.2
52 | DNAI | ≤ 0.2

Row | Variant | one-hybrid fitness for binding NBS DNA
53 | YADL | ≤ 0.2
54 | QPCG | ≤ 0.2
55 | TVTH | ≤ 0.2
56 | QPYC | ≤ 0.2
57 | IHAA | ≤ 0.2
58 | NISC | ≤ 0.2
59 | TSHI | ≤ 0.2
60 | RVEV | ≤ 0.2
61 | PWLR | ≤ 0.2
62 | SLHM | ≤ 0.2
63 | AAFS | ≤ 0.2
64 | QKWV | ≤ 0.2
65 | SSGT | ≤ 0.2
66 | QFIR | ≤ 0.2
67 | LHTS | ≤ 0.2
68 | SASP | ≤ 0.2
69 | EFTQ | ≤ 0.2
70 | KRPA | ≤ 0.2
71 | YGKS | ≤ 0.2
72 | QQIC | ≤ 0.2
73 | LPTS | ≤ 0.2
74 | QKNV | ≤ 0.2
75 | GLKT | ≤ 0.2
76 | NSAF | ≤ 0.2
77 | SEER | ≤ 0.2
